Source: PubChem BioAssay AID493208 (National Center for Advancing Translational Sciences (NCATS), 2011)
The campaign covered roughly 44,000 compounds. About 340 (0.77%) were called active. Roughly 5% stayed inconclusive and do not appear here. The call rests on the fitted dose curve; in most records, active means well fitted inhibition curve with a large enough effect; inconclusive means small, poorly fitted or top-dose-only effect; inactive means flat fitted curve, though single readings scatter. This is one part of the list.

Test: Acumen qHTS Assay for Inhibitors of the mTORC1 Signaling Pathway in MEF (Tsc2-/-, p53-/-) Cells: Sytravon;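 further: plate controls were DMSO for no effect and rapamycin for full effect; nearly all actives have a fitted effect of over 50% in size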
Conditions: phospho-rpS6 immunofluorescence/PI, 24 h; series mostly up to 38.3 µM; activity change, negative = inhibition: at the top concentration
In short: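 Compounds act on Tsc2-/-, p53-/- fibroblasts carrying an empty vector for 24 h before fixation and dual staining for phospho-S6 and DNA (propidium iodide). Values are percentages of cells above a rapamycin-defined pS6/PI threshold.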

| SMILES | activity change, negative = inhibition |
| --- | --- |
| COCCCNC(=O)c1cn(CCOC)c(=O)c2c1c1ccccc1n2C | inactive: -0.087% |
| Cc1ccccc1CNC(=O)CN1C(=O)CSc2ccc(S(=O)(=O)N(C)C)cc21 | inactive: 9.73% |
| COc1ccc(-c2noc(CCC(=O)Nc3ccc(C(F)(F)F)cc3)n2)cc1 | inactive: -8.44% |
| Cc1ccc(CSc2oc(-c3cccs3)nc2S(=O)(=O)c2ccccc2)cc1 | inactive: -10.5% |
| CC(=O)c1ccc(N2CCN(c3ncnc4c3nc3n4CCCC3)CC2)cc1 | inactive: -0.505% |
| COc1ccc(CCNC(=O)Cc2c(C)c3c(cc(C)c4c(C)c(C)oc43)oc2=O)cc1 | inactive: 2.33% |
| Cc1ccc2ncc(C(=O)N3CCN(c4ccccc4F)CC3)c(=O)n2c1 | inactive: 0.0918% |
| CCOC(=O)N1CCc2c(sc3c2c(=O)n(Cc2ccccc2)c(=O)n3Cc2ccccc2Cl)C1 | inactive: -3.01% |
| Cc1c(NC(=O)c2cc(-c3cccc(O)c3)on2)c(=O)n(-c2ccccc2)n1C | inactive: -9.43% |
| Cc1ccc(S(=O)(=O)N(CC(=O)NCCc2ccc(Cl)cc2)c2ccccc2C)cc1 | inactive: 1.14% |
| CCc1ccc(OCC(=O)N(Cc2ccc(C)o2)C2CCS(=O)(=O)C2)cc1 (stereo unspecified) | inactive: -7.71% |
| COc1cccc(NC(=O)C2CCN(c3nnc(C)c4c(C)n(-c5ccccc5)nc34)CC2)c1 | inactive: -5.52% |
| CCc1ccccc1NC(=O)N1CCc2c([nH]c3ccccc23)C1c1ccc(C)cc1 (stereo unspecified) | inactive: 0.29% |
| COc1ccc(CCNC(=O)c2cnn(-c3ccc(F)cc3)c2C2CCN(C(=O)OC(C)(C)C)CC2)c(OC)c1 | inactive: -3.91% |
| Cc1c(NC(=O)c2cc(=O)c3ccccc3o2)c(=O)n(-c2ccccc2)n1C | inactive: 4.1% |
| Cc1coc2c(C)c3oc(=O)c(CC(=O)NCCc4ccc(Cl)cc4)c(C)c3cc12 | inactive: -2.43% |
| COc1ccc(NC(=O)C2CCCN(S(=O)(=O)c3ccc4c(c3)oc(=O)n4C)C2)c(OC)c1 (stereo unspecified) | inactive: -5.89% |
| Cc1cccc(CSc2nc(-c3cccs3)ccc2C#N)c1 | inactive: -12.2% |
| O=C(COc1ccccc1F)Nc1nnc(SCc2cc(=O)c3ccccc3[nH]2)s1 | inactive: 5.7% |
| COCCCNC(=O)c1ccc(-n2c(-c3ccccc3)cc3c2CCC(C)C3)cc1 (stereo unspecified) | inactive: 8.17% |
| COc1cccc(N2CCN(C(=O)c3cccn3-c3nnc(N4CCCC4)s3)CC2)c1 | inactive: 6.83% |

| SMILES | activity change, negative = inhibition |
| --- | --- |
| CCCCOc1ccc(S(=O)(=O)Nc2ccc(-c3ccc(N4CCC(C)CC4)nn3)cc2)cc1 | inactive: 4.16% |
| COc1ccc(S(=O)(=O)Nc2ccc(-c3cn4ccsc4n3)cc2)cc1C | inactive: 0% |
| COc1ccc(CCN2C(=O)c3oc4cc(C)cc(C)c4c(=O)c3C2c2ccccc2F)cc1OC (stereo unspecified) | inactive: 1.96% |
| COc1cccc(-c2nnc(SCC(=O)NC3CCCCC3)o2)c1 | inactive: -0.286% |
| CCCn1c(=O)c2sccc2n2c(CCCC(=O)Nc3ccc(Oc4ccc(Cl)cc4)cc3)nnc12 | inactive: 0% |
| Cc1ccc(NC(=O)c2ccc(CN3C(=O)CCn4nc(C)cc43)cc2)c(Cl)c1 | inactive: -1.08% |
| CC(=O)c1ccc(NS(=O)(=O)c2ccc(-c3cc(C)no3)s2)cc1 | inactive: -5.29% |
| CCOc1ccc(CCNC(=O)C2CCN(C(=O)c3cc4sccc4n3CC)CC2)cc1OCC | inactive: 1.69% |
| CC(=O)c1ccc(NC(=O)C2CCC(CNS(=O)(=O)c3cccs3)CC2)cc1 (stereo unspecified) | inactive: -1.23% |
| Cc1cccc(NC(=O)Cn2c(=O)ccc3cc(S(=O)(=O)N4CCCC4)ccc32)c1C | inactive: 0.577% |
| COc1cccc(Cc2nc3ccccc3nc2SCC(=O)NCc2ccc(C)cc2)c1 | inactive: 8.01% |
| COc1ccc(CCNC(=O)c2ccc3c(c2)nc2n3CCC(C)C2)cc1OC (stereo unspecified) | inactive: -19.5% |
| CCOC(=O)c1noc2nc(C)n(Cc3cccc(C#N)c3)c(=O)c12 | inactive: 1.07% |
| COc1ccc(N2C(=O)CS(=O)(=O)C23C(=O)N(Cc2ccc(C)cc2)c2ccccc23)cc1Cl (stereo unspecified) | inactive: 5.41% |
| O=C(NCc1ccc(F)cc1)c1ccc2c(c1)nnn2C1CCCC1 | inactive: 0% |
| CCOc1ccc(NC(=O)N2CCN(Cc3cc(=O)n4nc(-c5ccc(OC)cc5)sc4n3)CC2)cc1 | inactive: 1.76% |
| Cc1c(NC(=O)c2cc(-c3ccc(Cl)cc3)on2)c(=O)n(-c2ccccc2)n1C | inactive: -0.113% |
| CCOC(=O)c1[nH]c(C)c(CCC(=O)NCc2ccc(OC)cc2)c1C | inactive: -4.92% |
| Cc1ccccc1-c1nnc(SCC(=O)N(C)C2CCCCC2)o1 | inactive: -0.986% |
| CCNC(=O)c1ccc(CSc2nc3ccncc3n2Cc2ccc(F)cc2)cc1 | inactive: -3.12% |
| CCN(C(=O)Cn1cnc2onc(-c3ccc(F)cc3)c2c1=O)c1cc(C)ccc1C | inactive: 7.09% |

| SMILES | activity change, negative = inhibition |
| --- | --- |
| CCn1c(C(=O)NCc2cc(Br)ccc2OC)cc2oc3ccccc3c21 | inactive: -0.37% |
| Cc1ccc(NC(=O)N2CCN(c3cc(-c4noc(C)n4)ccc3C)CC2)c(C)c1 | inactive: -8.75% |
| Cc1cccc(CCNC(=O)CN(c2ccc(C(C)C)cc2)S(=O)(=O)c2c(C)nn(C)c2C)c1 | inactive: 6.5% |
| CC(=O)c1ccc(NC(=O)c2nc(-c3ccc(C)cc3)n3c2CCCCC3)cc1 | inactive: -1.62% |
| Cc1ccc(OCC(=O)Nc2nc(-c3ccc(Br)cc3)ns2)cc1C | inactive: -20.5% |
| COc1ccc(CNc2nc3ccccc3c3nc(-c4ccccc4)nn23)cc1 | inactive: -3.21% |
| Cc1ccccc1OCC(=O)Nc1ccc2nc(SCc3ccccc3)sc2c1 | inactive: -7.07% |
| COc1ccc(-c2ccc(NS(=O)(=O)c3cccc(C)c3)cc2)nn1 | inactive: -14% |
| COc1ccc(OCC(=O)NC2CC(=O)N(c3ccc4c(c3)OCCO4)C2)cc1 (stereo unspecified) | inactive: -2.14% |
| CCc1ccc(NS(=O)(=O)c2c(C)nc3sc(CC)nn3c2=O)cc1 | inactive: -25.7% |
| Cc1ccc(C)c(CN2C(=O)C3(c4ccccc42)N(c2ccc(Cl)cc2)C(=O)CS3(=O)=O)c1 (stereo unspecified) | inactive: 3.64% |
| COc1ccc(CCNC(=O)C2CCN(c3nc4ccccc4nc3C(F)(F)F)CC2)c(OC)c1 | inactive: 2.66% |
| CC(=O)N1c2ccccc2CC1C(=O)NCc1cccc(Cl)c1 (stereo unspecified) | inactive: -15.8% |
| COc1ccc(-c2cc(C)no2)cc1S(=O)(=O)N1CCN(c2ccccc2F)CC1 | inactive: 0.974% |
| COc1ccc(CCNc2nc3c(-c4cccc(F)c4)nnn3c3ccccc23)cc1OC | inactive: 2.87% |
| Cc1cccc(NC(=O)CSc2nc(-c3ccccc3Cl)nc3c2Cc2c(CO)cnc(C)c2O3)c1C | inactive: -1.31% |
| CC1CCN(c2nc3c(S(=O)(=O)c4ccc(Cl)cc4)nnn3c3ccsc23)CC1 | inactive: -7.88% |
| COCCNC(=O)C1CCN(c2nc3ccccc3nc2C(F)(F)F)CC1 | inactive: 7.25% |
| CCc1ccccc1NC(=O)c1ccc(CN2C(=O)CCn3nc(C)cc32)cc1 | inactive: -1.39% |
